Experimental data reported in patent US20260207759A1, “COMPOSITION OF CD40-BINDING MOLECULE AND PHARMACEUTICAL USE THEREOF” (SUZHOU SUNCADIA BIOPHARMACEUTICALS CO., LTD., priority 2022, published 2026).

How the values were obtained:
[1] = system: human CD40 transgenic mice; assay: Mouse skin graft rejection model (anti-CD40-ADC); format: in vivo; details: 10 mpk ip, budesonide 0.12 mg/kg QD, dexamethasone 20 mpk QD
[2] = system: human CD40 transgenic mice; assay: Mouse skin graft rejection model (antibodies, tacrolimus combination); format: in vivo
CD40 [3] = target: T1, CD40 (Homo sapiens, UniProt P25942); assay: B cell activation assay system (human PBMCs, CD40L-induced CD19+CD69+); format: cell-based; parameters: endogenous in cells; host or cells: human PBMCs (B cells); DCs differentiated from human CD14+ monocytes; details: CD40L stimulation overnight
[4] = mouse, in vivo, ip, 10 mg/kg
CD40 [5] = target: T1, CD40; assay: SPR affinity of anti-CD40-ADC for human CD40; format: binding; parameters: Glu21-Arg193; purchased Acrobiosystems Inc. CD0-H5228; details: mobile phase Human CD40
CD40 [6] = target: T1, CD40; assay: Inhibitory activity of anti-CD40-ADC in B cell activation assay system (human PBMCs); format: cell-based; parameters: endogenous in cells; host or cells: human PBMCs (B cells); DCs differentiated from human CD14+ monocytes
CD40 [7] = target: T1, CD40; assay: SPR (Biacore) affinity of anti-CD40 antibodies for human CD40; format: binding; parameters: Glu21-Arg193; purchased Acrobiosystems Inc. CD0-H5228; details: mobile phase Human CD40
[8] = system: human CD40 transgenic mice; assay: Mouse T cell-dependent humoral immune response (TDAR) model, anti-KLH specific IgG; format: in vivo; details: 0.3 mpk BIW ip, hCD40 transgenic mice (IgG1 control 1 mg/kg)
CD40 [9] = target: T1, CD40; assay: Agonistic activity in B cell activation assay system without CD40L; format: cell-based; parameters: endogenous in cells; host or cells: human PBMCs (B cells); DCs differentiated from human CD14+ monocytes; details: human PBMCs without CD40L, FIG. 4; antagonists at 2.5 nM
Cynomolgus monkey CD40 [10] = assay: SPR (Biacore) affinity of anti-CD40 antibodies for cynomolgus monkey CD40; format: binding; details: mobile phase Cynomolgus monkey CD40
Cynomolgus monkey CD40 [11] = assay: SPR affinity of anti-CD40-ADC for cynomolgus monkey CD40; format: binding; details: mobile phase Cynomolgus monkey CD40
[12] = Table 21: 9E6-L4H2 10 mpk, FK506 3 mpk, alone or combined

T1 sequence (P25942 21-277): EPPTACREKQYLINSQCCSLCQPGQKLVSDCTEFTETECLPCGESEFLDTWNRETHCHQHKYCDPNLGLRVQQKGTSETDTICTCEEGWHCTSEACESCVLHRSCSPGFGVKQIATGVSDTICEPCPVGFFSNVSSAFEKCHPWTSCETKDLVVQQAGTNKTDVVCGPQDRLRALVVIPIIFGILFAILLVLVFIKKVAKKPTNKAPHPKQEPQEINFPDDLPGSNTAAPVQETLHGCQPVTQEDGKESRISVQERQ

B1: 9E6-L4H2: humanized anti-CD40 antibody, heavy chain SEQ ID NO: 20, light chain SEQ ID NO: 21, IgG1 N297A (antibody)
heavy: QVQVQESGPGLVKPSDTLSLTCTVSGFSLSSYDMSWIRQPPGKGLEWIGAIGGAGGTYYASWAKSRVTISVDTSLNQVSLKLSSVTAADTAVYYCARGWTRLDLWGQGTLVTVSSASTKGPSVFPLAPSSKSTSGGTAALGCLVKDYFPEPVTVSWNSGALTSGVHTFPAVLQSSGLYSLSSVVTVPSSSLGTQTYICNVNHKPSNTKVDKKV[human IgG1 Fc with changes not spelt out]
light: DIQLTQSPSFLSASVGDRVTITCQASEDISSNLAWYQQKPGKPPKLLIFPASNLASGVPSRFSGSGSGTEFTLTISSLQPEDFATYYCQGGYWTSTSNFGQGFGGGTKVEIKRTVAAPSVFIFPPSDEQLKSGTASVVCLLNNFYPREAKVQWKVDNALQSGNSQESVTEQDSKDSTYSLSSTLTLSKADYEKHKVYACEVTHQGLSSPVTKSFNRGEC
With B1 the “Skin graft survival rate (%), 10 days” value [1] was 100%, the “Skin graft survival rate (%), 15 days” value [1] was 44.4% and the “Skin graft survival rate (%), 20 days” value [1] was 11%. The “Skin graft score, 10 days” value ([1]; score 3 to 0) was 2.78, the “Skin graft score, 15 days” value ([1]; score 3 to 0) was 1 and the “Skin graft score, 20 days” value ([1]; score 3 to 0) was 0.22. The “Day-15 skin graft survival rate (%)” value ([2]; 3 mpk ip) was 28.5%, the “Skin graft score, 8 days” value ([2]; 3 mpk, score 3 (best) to 0 (rejected)) was 3 and the “Skin graft score, 10 days” value ([2]; 3 mpk, score 3 to 0) was 2.7. The “Skin graft score, 15 days” value ([2]; 3 mpk, score 3 to 0) was 0.6, the “Skin graft score, 20 days” value ([2]; 3 mpk, score 3 to 0) was 0 and the “Day-15 skin graft survival rate (%)” value ([2]; 10 mpk ip) was 14.3%. The “Skin graft score, 8 days” value ([2]; 10 mpk, score 3 to 0) was 3, the “Skin graft score, 10 days” value ([2]; 10 mpk, score 3 to 0) was 2.7 and the “Skin graft score, 15 days” value ([2]; 10 mpk, score 3 to 0) was 0.3. For the same molecule, the “Skin graft score, 20 days” value ([2]; 10 mpk, score 3 to 0) was 0, the “Day-15 skin graft survival rate (%)” value ([2]; Table 20: antibody 10 mpk, FK506 3 mpk, alone or combined) was 14.3% and the “Skin graft score, 8 days” value [2, 12] was 3. For the same molecule, the “Skin graft score, 10 days” value [2, 12] was 2.7, the “Skin graft score, 15 days” value [2, 12] was 0.3 and the “Skin graft score, 20 days” value [2, 12] was 0. The “CD19+CD69+ MFI Maximum inhibition rate” value (CD40 [3]) was 110%, the “CD19+CD69+% Maximum inhibition rate” value (CD40 [3]) was 98% and the “AUC(0-d14)((h) * (mg/L))” value [4] was 13439 (h) * (mg/L). The “C max” value [4] was 85.8 µg/mL, the “T1/2” value [4] was 226.8 h and the “Ka” value (CD40 [5]) was 407000 M⁻¹ s⁻¹. The “Kd” value (CD40 [5]) was 0.000377 s⁻¹, the “CD19+CD69+% Maximum inhibition rate” value (CD40 [6]; Donor 1) was 95% and the “CD19+CD69+% Maximum inhibition rate” value (CD40 [6]; Donor 2) was 104%. The “Ka” value (CD40 [7]) was 413000 M⁻¹ s⁻¹, the “koff (dissociation rate constant, 1/s)” value (CD40 [7]) was 0.000221 s⁻¹ and the “anti-KLH specific IgG, Day 7” value [8] was 0.002 ± 0.001. The “anti-KLH specific IgG, Day 14” value [8] was 0.02 ± 0.01, the “anti-KLH specific IgG, Day 21” value [8] was 0 and the “anti-KLH specific IgG, Day 28” value [8] was 18.25 ± 8.9. The “B cell agonistic activity” value (CD40 [9]) was “no significant B cell agonistic activity”, the “Ka” value (Cynomolgus monkey CD40 [10]) was 514000 M⁻¹ s⁻¹ and the “Kd” value (Cynomolgus monkey CD40 [10]) was 6.23e-05 s⁻¹. The “Ka” value (Cynomolgus monkey CD40 [11]) was 468000 M⁻¹ s⁻¹ and the “Kd” value (Cynomolgus monkey CD40 [11]) was 0.000138 s⁻¹.
